TGI and GI50 data for 5 compounds are collected here from PubChem BioAssay (NCI).

One may read the GI50 as the concentration at which growth is held to half of that of the control. A lower GI50 goes with greater sensitivity of the cells.

Holding throughout (experiment): DTP human tumour cell line panel, 48 h
Experiment [1] relates to COLO 205 colon.
The test system of experiment [2] is HS 578T breast.
Experiment [3] relates to MDA-N.
Experiment [4] deals with K-562 leukemia.
For experiment [5], the system named is HL-60(TB) leukemia.
Experiment [6] concerns RPMI-8226 leukemia.
The subject of experiment [7] is SR leukemia.
Experiment [8] relates to SNB-78 CNS.
Experiment [9] deals with NCI-H23 lung.
For experiment [10], the system named is EKVX NSCLC.
Experiment [11] relates to NCI/ADR-RES ovarian.
The test system of experiment [12] is SW-620 colon.
Experiment [13] deals with MOLT-4 leukemia.
Experiment [14] concerns OVCAR-4 ovarian.
Experiment [15] relates to LOX IMVI melanoma.
The test system of experiment [16] is NCI-H226 lung.
Experiment [17] relates to IGROV1 ovarian.
Experiment [18] concerns CAKI-1 renal.
Experiment [19] relates to KM12 colon.
For experiment [20], the system named is OVCAR-5 ovarian.
Experiment [21] relates to SF-295 CNS.
In experiment [22] the test system is DU-145 prostate.
Experiment [23] has as its system 786-0 renal.
Experiment [24] relates to MCF7 breast.

Molecules are shown by their SMILES.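 Cells were grown in 96-well plates and exposed to each compound for 48 hours at five concentrations; endpoints were interpolated linearly between bracketing concentrations, or set to the highest concentration if not reached. Abbreviation: GI50, concentration required for 50% inhibition of growth.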 Some entries of the source have several records that differ or are many. Only these are listed. The source may hold further records. For part of these data: Records of one sample usually come from different ranges of test concentrations, which the source does not state; some values may only mark the edge of a range. For part of these data: Values given together are repeated measurements in other runs, samples, wells, individuals or studies. Brackets tell where a record comes from. The letters are not those of the source and start again with each entry.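 TGI marks complete inhibition of growth.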 Some results are limits rather than exact numbers.

As to `CCS(=O)(=O)c1cccc(-c2cc(C(=O)NC3CCN(C)CC3)c(C)c3[nH]c4ncc(C)cc4c23)c1`, the TGI in experiment [1] was 1.37 µM [sample A, mean of 2 tests] and 119 nM [sample B, mean of 2 tests].
Consider `Cc1c(-c2ccc(-c3ccccc3F)cc2)nc2ccc(F)cc2c1C(=O)O`, for which the GI50 was 134 nM [1 test] and 5.4 µM [mean of 2 tests] in experiment [2]; 49.3 nM [1 test] and 889 nM [mean of 4 tests] in [4]; 72.1 nM [1 test] and 1.46 µM [mean of 4 tests] in experiment [5]; 22.7 nM and 500 nM in [7]. The TGI in experiment [2] was 13.4 µM, 185 µM, 240 µM; in [3] it was 90.3 µM and 999 µM; in experiment [6] it was 80.7 µM, 192 µM, 868 µM; in [7], 158 µM and 5 mM; in [8], 304 µM [1 test] and 28.7 µM [mean of 3 tests].
In the case of `CC(C)=CC(=O)OC1C2C(C)=CC(=O)C(O)C2(C)C2C3(O)OCC24C(CC(=O)OC14)C(C)C3O` (stereo not drawn), the TGI is 18 nM, 33.9 nM, 431 nM in [9]; 7.8 nM and 200 nM in experiment [5]; 453 nM, 6.35 µM, 78.8 nM in experiment [10]; 304 nM, 60.9 µM, 27.8 µM in experiment [11]; 115 nM, 1.32 µM, 342 nM in experiment [12]; 4.56 nM and 1.47 µM in experiment [13]. In addition, the TGI is 43.5 nM, 1.59 µM, 56.2 nM in [14]; 6.82 nM and 200 nM in experiment [15]; 28.4 nM, 4.82 µM, 40.9 nM in [16]; 61.5 nM, > 100 µM, 56.7 nM in experiment [17]; 15.2 nM and > 100 µM in experiment [7]; > 100 µM [1 test] and 792 nM, 1.59 µM [mean of 4 tests] in experiment [18]. For the same compound, the TGI in experiment [19] was 62 nM, > 100 µM, 54.7 nM; in [20], 26.8 nM, 79.4 nM, 3.08 µM. For the same compound, the GI50 in [10] is 1.11 µM [1 test] and 23.1 nM [mean of 5 tests].
On to `CN1C2C=CC(=O)C1C(C#N)C2` (stereo not drawn), for which the GI50 in experiment [21] is > 100 µM [sample A, 1 test] and 689 nM [sample B, 1 test]; in experiment [20], 4.18 µM [sample A, 1 test] and > 100 µM [sample B, 1 test].
Turning to `CCCC(=O)Nc1cc(/C=C/C(=O)N2C[C@@H]3C[C@]34C2=CC(=O)c2[nH]cc(C)c24)n(C)c1`, the TGI was 478 nM and 21.4 µM in experiment [22]; 5.77 µM and 561 nM in experiment [10]; 3.62 µM and 212 nM in experiment [15]; 2.67 µM and 253 nM in experiment [23]; 25 µM and 1.43 µM in experiment [24]; 25 µM and 429 nM in experiment [20].
